# Test results from the supplement of paper PMC8728848.
# Some of the results follow.
# B1: CC1G-11630 (Coprinopsis cinerea), A8P462 (protein)
# chain: MTTEAKIKLKAVVYWELVFDYDNSSNTGEITQSYTVKISQTSTRSTFASEVSTTTIDTLTKNNQEVDVGASYGAISANVSASWEHSEEVNNMLEKTTQTSTEDTYTVETEETRSYTIGPGGMLSLFQKHFSGPGMHVAFDVFTTDLELAKERTEIDIDVDVEAIRFVREIRVVYTDIMSEAPGDHVREINGKNPDINYGFNGKFVWLVPEQTRKTAQALTNVEFVSQAESDDRYWDLAAGAGGSNRYLIPVYDTNNKDKIYELALWRSDSYITHDKVKAAGWSGTTGDINSGRGGTYLNLVWKTRHAY
# Tests used:
# Assay in all cases: glycan array binding signal (z-score within array); higher = stronger binding
# Conditions in all cases: glycan notation: IUPAC condensed, linker removed
# [1] = target: Gal(a1-3)Gal
# Outline: (§1)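 Columns mapping to the same glycan were averaged after glycan names were converted to IUPAC-condensed notation. The data come from 3228 arrays in the Consortium for Functional Glycomics database, limited to those with an available protein sequence. Binding is reported as a within-array Z-score averaged across arrays of one protein sequence and across linkers.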
# [2] = target: Gal(a1-3)Gal(b1-3)GlcNAc
# Outline: as §1
# [3] = target: Gal(a1-3)Gal(b1-3)GlcNAc(b1-2)Man
# Outline: as §1
# [4] = target: Gal(a1-3)Gal(b1-3)GlcNAc(b1-2)Man(a1-3)[Gal(a1-3)Gal(b1-3)GlcNAc(b1-2)Man(a1-6)]Man(b1-4)GlcNAc(b1-4)GlcNAc
# Outline: as §1
# [5] = target: Gal(a1-3)Gal(b1-3)GlcNAc(b1-3)GalNAc
# Outline: as §1
# [6] = target: Gal(a1-3)Gal(b1-3)GlcNAc(b1-6)GalNAc
# Outline: as §1
# [7] = target: Gal(a1-3)Gal(b1-3)[Fuc(a1-4)]GlcNAc(b1-2)Man(a1-3)[Gal(a1-3)Gal(b1-3)[Fuc(a1-4)]GlcNAc(b1-2)Man(a1-6)]Man(b1-4)GlcNAc(b1-4)GlcNAc
# Outline: as §1
# [8] = target: Gal(a1-3)Gal(b1-4)Glc
# Outline: as §1
# [9] = target: Gal(a1-3)Gal(b1-4)GlcNAc
# Outline: as §1
# [10] = target: Gal(a1-3)Gal(b1-4)GlcNAc(b1-2)Man
# Outline: as §1
# [11] = target: Gal(a1-3)Gal(b1-4)GlcNAc(b1-2)Man(a1-3)[Gal(a1-3)Gal(b1-4)GlcNAc(b1-2)Man(a1-6)]Man(b1-4)GlcNAc(b1-4)GlcNAc
# Outline: as §1
# [12] = target: Gal(a1-3)Gal(b1-4)GlcNAc(b1-3)GalNAc
# Outline: as §1
# [13] = target: Gal(a1-3)Gal(b1-4)GlcNAc(b1-6)GalNAc
# Outline: as §1
# [14] = target: Gal(a1-3)Gal(b1-4)[Fuc(a1-3)]GlcNAc
# Outline: as §1
# [15] = target: Gal(a1-3)Gal(b1-4)[Fuc(a1-3)]GlcNAc(b1-2)Man(a1-3)[Gal(a1-3)Gal(b1-4)[Fuc(a1-3)]GlcNAc(b1-2)Man(a1-6)]Man(b1-4)GlcNAc(b1-4)GlcNAc
# Outline: as §1
# [16] = target: Gal(a1-3)GalNAc
# Outline: as §1
# [17] = target: Gal(a1-3)[Gal(a1-4)]Gal(b1-4)GlcNAc
# Outline: as §1
# [18] = target: Gal(a1-4)Gal(b1-3)GlcNAc(b1-2)Man(a1-3)[Gal(a1-4)Gal(b1-3)GlcNAc(b1-2)Man(a1-6)]Man(b1-4)GlcNAc(b1-4)GlcNAc
# Outline: as §1
# [19] = target: Gal(a1-4)Gal(b1-4)Glc
# Outline: as §1
# [20] = target: Gal(a1-4)Gal(b1-4)GlcNAc
# Outline: as §1
# [21] = target: Gal(a1-4)Gal(b1-4)GlcNAc(b1-2)Man(a1-3)[Gal(a1-4)Gal(b1-4)GlcNAc(b1-2)Man(a1-6)]Man(b1-4)GlcNAc(b1-4)GlcNAc
# Outline: as §1
# [22] = target: Gal(a1-4)Gal(b1-4)GlcNAc(b1-3)Gal(b1-4)Glc
# Outline: as §1
# [23] = target: Gal(a1-4)GlcNAc
# Outline: as §1
# [24] = target: Gal(a1-6)Glc
# Outline: as §1
# [25] = target: Gal(b1-2)Gal
# Outline: as §1
# [26] = target: Gal(b1-3)Gal
# Outline: as §1
# [27] = target: Gal(b1-3)Gal(b1-4)GlcNAc
# Outline: as §1
# [28] = target: Gal(b1-3)GalNAc
# Outline: as §1
# [29] = target: Gal(b1-3)GalNAc(a1-3)[Fuc(a1-2)]Gal(b1-4)Glc
# Outline: as §1
# [30] = target: Gal(b1-3)GalNAc(a1-3)[Fuc(a1-2)]Gal(b1-4)GlcNAc
# Outline: as §1
# [31] = target: Gal(b1-3)GalNAc(b1-3)Gal
# Outline: as §1
# [32] = target: Gal(b1-3)GalNAc(b1-3)Gal(a1-4)Gal(b1-4)Glc
# Outline: as §1
# [33] = target: Gal(b1-3)GalNAc(b1-4)Gal(b1-4)Glc
# Outline: as §1
# [34] = target: Gal(b1-3)GalNAc(b1-4)[Neu5Ac(a2-3)]Gal(b1-4)Glc
# Outline: as §1
# [35] = target: Gal(b1-3)GlcNAc
# Outline: as §1
# [36] = target: Gal(b1-3)GlcNAc(a1-3)Gal(b1-4)GlcNAc
# Outline: as §1
# [37] = target: Gal(b1-3)GlcNAc(a1-6)Gal(b1-4)GlcNAc
# Outline: as §1
# [38] = target: Gal(b1-3)GlcNAc(b1-2)Man
# Outline: as §1
binder,measurement,setting,value
B1,glycan array binding signal (z-score),[1],-0.124
same,glycan array binding signal (z-score),[2],6.02
same,glycan array binding signal (z-score),[3],0.001
same,glycan array binding signal (z-score),[4],1.44
same,glycan array binding signal (z-score),[5],-0.316
same,glycan array binding signal (z-score),[6],-0.298
same,glycan array binding signal (z-score),[7],0.161
same,glycan array binding signal (z-score),[8],0.07
same,glycan array binding signal (z-score),[9],-0.108
same,glycan array binding signal (z-score),[10],-0.486
same,glycan array binding signal (z-score),[11],-0.043
same,glycan array binding signal (z-score),[12],-0.065
same,glycan array binding signal (z-score),[13],-0.602
same,glycan array binding signal (z-score),[14],-0.254
same,glycan array binding signal (z-score),[15],0.72
same,glycan array binding signal (z-score),[16],-0.128
same,glycan array binding signal (z-score),[17],-0.464
same,glycan array binding signal (z-score),[18],-0.123
same,glycan array binding signal (z-score),[19],0.088
same,glycan array binding signal (z-score),[20],-0.231
same,glycan array binding signal (z-score),[21],0.102
same,glycan array binding signal (z-score),[22],-0.489
same,glycan array binding signal (z-score),[23],-0.172
same,glycan array binding signal (z-score),[24],0.156
same,glycan array binding signal (z-score),[25],0.137
same,glycan array binding signal (z-score),[26],-0.364
same,glycan array binding signal (z-score),[27],-0.38
same,glycan array binding signal (z-score),[28],-0.111
same,glycan array binding signal (z-score),[29],-0.477
same,glycan array binding signal (z-score),[30],-0.414
same,glycan array binding signal (z-score),[31],-0.936
same,glycan array binding signal (z-score),[32],-0.375
same,glycan array binding signal (z-score),[33],-0.195
same,glycan array binding signal (z-score),[34],-0.229
same,glycan array binding signal (z-score),[35],-0.809
same,glycan array binding signal (z-score),[36],-0.437
same,glycan array binding signal (z-score),[37],-0.556
same,glycan array binding signal (z-score),[38],-0.642
